T1: UNK ZnF1-3 (human, UniProt Q9C0B0 31-174)
T1 sequence: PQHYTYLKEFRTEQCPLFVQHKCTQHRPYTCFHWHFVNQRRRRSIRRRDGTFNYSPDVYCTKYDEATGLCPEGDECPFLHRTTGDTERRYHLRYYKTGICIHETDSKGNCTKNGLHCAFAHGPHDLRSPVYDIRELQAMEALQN

B1: 94973625_94974325_524_3pUTR_ENSMUSG00000014602_ENSMUST00000171796|mouse|control|control (ssRNA)
RNA: GGGAGUUCUACAGUCCGACGAUCGAGUAGGACAUGUUGUCGUUGGUGGUGUCGUUGAUUCGAGAGAAGAGGUCUUCGCAGAGCUGUGGAAUGAUGCCUUGCUGGUCCUUCUCCUGUUUCCCCAUCAUGGUGUAGGACUUGCCGCAACAGAGGAUUGAGCAUCA
B2: chr17:74721675:74721676:-_ENSG00000070495_ENST00000397625|hu_hu|FALSE|FALSE (ssRNA)
RNA: GGGAGUUCUACAGUCCGACGAUCGUCUUCCAAAAGUUUCCUUCUUUUAGGGUGUUCACCAUAGCUGCUGUCAAAGAUGUAAAGGGGACUAUCAUCUCGAGUGCUCUCCAUGUACUCGAUGUAGUAUUUCAUCUUCAUCUUCACCAACAGAGGAUUGAGCAUCA
B3: chr1:152005216:152005217:-_ENSG00000163191_ENST00000271638|perfect_dup|motif|central (ssRNA)
RNA: GGGAGUUCUACAGUCCGACGAUCAGAGGAUUAGAUUCGCUUCUGGGAAGUUUGGAUGAAAGAAUCAUGGCACGCGGUAGCGGAGCCACCAAUGAGGUUGAGAAACUCUUGGAAAUCUAGCUGCCCGUCACAGUUGAGGUCCAGCAACAGAGGAUUGAGCAUCA
B4: chr4:138847413:138847414:+_ENSMUSG00000028745_ENSMUST00000102508|mus_mus|FALSE|FALSE (ssRNA)
RNA: GGGAGUUCUACAGUCCGACGAUCGCUGAGGACAUCACUCCUUCCUCCACUGCUGUCCCCUGUCCCCAGCCCUGACUCCAAGCAACUCCCACACACACACGGAUCAGAUCUCCAGUUUCUUCUCUCACACACCAGUUAGUUCAUCAACAGAGGAUUGAGCAUCA
B5: chr4:107908409:107908410:-_ENSMUSG00000034636_ENSMUST00000043616|mus_mus|motif|central (ssRNA)
RNA: GGGAGUUCUACAGUCCGACGAUCUGAAACUGUAGAAUUUCAAGCACAAGUUAAGUUCAAACACUGAGAGAGAGAUUCCCGGAGAGACAAUAUUGAAGGAAGACCUUUCUUGCCUCAUAAGUUAAAAAUCACAAAACAAAUCAGCAACAGAGGAUUGAGCAUCA
B6: chr1:167252050:167252051:+_ENSMUSG00000040836_ENSMUST00000111450|mus_mus|FALSE|FALSE (ssRNA)
RNA: GGGAGUUCUACAGUCCGACGAUCGGAUACCAUUGAAGACAAGAGCCACAUGGUGGCUUCCCUUUCACAUCCACCAUCUCUAGUCCUCCUGAUGCCCCAGCCACAUCUCCAUCUGCUUCUAACGUGUGCUUUCGAAGCCUCGUUCAACAGAGGAUUGAGCAUCA
B7: 143732237_143732357_1318_CDS_ENSMUSG00000029581_ENSMUST00000031565|mouse|control|control (ssRNA)
RNA: GGGAGUUCUACAGUCCGACGAUCGUUGUAGGCGCCGUCAUUGAAUUCCAACUGGAAGACAUCGUAACUGGAACGGUUGGCAUCCAGAGUGCCCGUGACCUUGCGGCAGCCAAUGAACCCGUGUUCCCCCCGGAACACGAUGAUCAACAGAGGAUUGAGCAUCA
B8: chr8:117878989:117878990:-_ENSG00000164754_ENST00000297338|hu_hu|hu_hu_hu_mus_True|8_58 (ssRNA)
RNA: GGGAGUUCUACAGUCCGACGAUCCCAGAGGCCCUCGUUUACUGAGGACAAAAUGUGCGUAGAACAUUUUUCUUAUUGGCUAUGAAAUAAGAAGAAACCUGGAUCUCGGCGGGGAGCCGGGAGGGGUUGGGUGGCCCGGGAGGGCAACAGAGGAUUGAGCAUCA
B9: 67227886_67228528_1651_CDS_ENSMUSG00000031605_ENSMUST00000034017|mouse|control|control (ssRNA)
RNA: GGGAGUUCUACAGUCCGACGAUCGUCAUAUACUUCAACACUUUUUCGUACUAAAGGACCAUCAUGACCUCCUACAGCAUAUAAUAAGUUGUUUAACACACCAACACCUGCUCCGCUCCGUCUGGUGCUCAUUUCUGCUAUGUACAACAGAGGAUUGAGCAUCA
B10: chr1:225611761:225611762:-_ENSG00000143815_ENST00000272163|hu_mus|hu_hu_hu_mus_True|1_108 (ssRNA)
RNA: GGGAGUUCUACAGUCCGACGAUCCCAGGCCAUCGACCUCUGACCACUUCACCCUCAACAAACUUCCUACUUGGCAUUUUCUAAAAUUAGUCUGGCCGCGCUCCGGCGGGAACUCCAGCCACUCCAGGACAGUCACCCGCACAGCAACAGAGGAUUGAGCAUCA
B11: 31828395_31829081_688_CDS_ENSG00000204386_ENST00000375631|human|control|control (ssRNA)
RNA: GGGAGUUCUACAGUCCGACGAUCUUUCUGAAUACCAGAGCCCGGUCCAGGGGCAAACACUUCAGUGCCAAUAUCCAGGGAGAGAUUCCGGGGUGUGCUCCAGGAAACACCAUCAUCCUUGCUCCAUACCAACAUGGUAGAGGCCAACAGAGGAUUGAGCAUCA
B12: chr4:25749455:25749456:-_ENSG00000091490_ENST00000264868|hu_hu|hu_hu_hu_mus_False|58_88 (ssRNA)
RNA: GGGAGUUCUACAGUCCGACGAUCGCACUAUGACCUCUAGAAAAAUCAUUCAAGGAGAAAAAUGUAAACCAAUGUACAAAGCUAUUGCCUUCCCUGUGUGUGGAGUGUUUGUCUCAAGGCUCCUUCUAGCUGCUGGAUUUGGGACAACAGAGGAUUGAGCAUCA
B13: chr1:213302989:213302990:+_ENSG00000136643_ENST00000366960|hu_hu|motif|central (ssRNA)
RNA: GGGAGUUCUACAGUCCGACGAUCAGAAGCAACAGCCCCUAGUGCUGAAGAAUCCGAAGAAAGAUUGAGACCAAAAGUUCGGAUGGGAGAAUUUUGAUUGGAAGCCAUUCCAUCAUCUAACUCAGCAAGAGAAUCCACAUCAACCAACAGAGGAUUGAGCAUCA
B14: 91924360_91936672_504_3pUTR_ENSG00000001629_ENST00000265742|human|control|control (ssRNA)
RNA: GGGAGUUCUACAGUCCGACGAUCCCUAAUAUUUUAUUCAUUCCAUGUCUAGCAGCAUAAUGUAAUGGAGUAUUGUGCUGGUAGGGCUCCCCAUAAGAUGUAUUUGGAUCAAGAGAUUCUUUUAGCUGAGGAUUGUUUUCAUAUCAACAGAGGAUUGAGCAUCA

The list shows a part of the results.

The assay deals with T1, UNK ZnF1-3. Put plainly: nsRBNS (natural sequence RNA bind-n-seq); RBNS binding buffer (assumed for nsRBNS): 25 mM Tris pH 7.5, 150 mM KCl, 3 mM MgCl2, 0.01% Triton X-100, 500 ug/ml BSA, 20 U/ml SUPERase-In, 4 C; UNK is unkempt and MSI1 is Musashi-1; names of the RNAs are library labels; protein concentration not given here; high values mean tight binding.
As to B1, the binding signal worked out at 0.588 enrichment R.
The figure for B2 is 0.689 enrichment R; for B3 it is 1.5 enrichment R.
Then B4, with 1.25 enrichment R.
Regarding B5, the binding signal was 1.46 enrichment R.
Then B6, with 0.592 enrichment R; and B7, with 0.682 enrichment R; and B8, with 1.44 enrichment R.
The figure for B9 is 1.06 enrichment R.
The figure for B10 is 1.29 enrichment R; for B11 it is 1.04 enrichment R; for B12 it is 1.12 enrichment R.
In the case of B13, the binding signal amounted to 2.3 enrichment R.
The figure for B14 is 0.937 enrichment R.

The record behind these values is publication PMC12136788.
